Out of some 48,000 compounds screened, about 550 (1.1%) were called active. About 4% were inconclusive and are not listed. Rule as the data show it: active = potency below about 15 µM; inconclusive = mostly about 16 µM to 33 µM; inactive = weaker than that. Some of the results follow.
Potency is read from the fitted curve at half-maximal effect.

UniProt P04062, sequence (P04062 whole entry, looked up): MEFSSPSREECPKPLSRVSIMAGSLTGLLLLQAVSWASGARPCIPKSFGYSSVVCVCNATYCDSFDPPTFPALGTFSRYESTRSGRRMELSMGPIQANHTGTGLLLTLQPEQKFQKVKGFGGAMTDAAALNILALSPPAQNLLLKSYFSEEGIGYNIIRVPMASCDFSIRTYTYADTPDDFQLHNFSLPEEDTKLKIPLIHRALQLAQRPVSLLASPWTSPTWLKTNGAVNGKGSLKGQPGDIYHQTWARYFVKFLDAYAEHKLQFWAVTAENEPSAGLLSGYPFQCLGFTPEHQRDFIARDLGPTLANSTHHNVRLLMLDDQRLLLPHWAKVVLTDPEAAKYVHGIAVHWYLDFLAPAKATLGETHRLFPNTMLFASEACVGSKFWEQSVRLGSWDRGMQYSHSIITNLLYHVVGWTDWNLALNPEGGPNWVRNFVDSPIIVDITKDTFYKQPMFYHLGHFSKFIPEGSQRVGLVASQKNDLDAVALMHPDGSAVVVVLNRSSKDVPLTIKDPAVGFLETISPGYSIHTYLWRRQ

This experiment has as its target Lysosomal acid glucosylceramidase (Homo sapiens) (UniProt P04062). The experiment is described as follows: Glucocerebrosidase.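 Also: the screen sought inhibitors.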 The following applies: purified enzyme, resorufin glucoside fluorescence (screen aimed at inhibitors), 20 min. In short, it runs like this:
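Compounds titrated against 0.2 nM normal enzyme, 30 uM resorufin beta-D-glucopyranoside substrate, citrate/phosphate buffer with taurocholate and tween-20, pH 5.9. Reaction ran 20 min at room temperature; fluorescence (Ex 548/Em 600) gave AC50.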
Take `CCOC(=O)c1cccc2c1-c1ccccc1/C2=N/O`: the Potency was inactive: > 76.9 µM.

As for `CC(C)(C)OC(=O)N1CCC[C@H]1c1nnc(SCc2c(F)cccc2Cl)o1`, the Potency was inactive: > 76.9 µM.

Regarding `CC1Cc2ccccc2N1C(=O)CSc1nc2c(c(=O)n(C)c(=O)n2C)n1Cc1ccccc1` (stereo not drawn), the Potency was inactive: > 76.9 µM.

Take `O=C(Cn1c(NCCO)nc2ccccc21)c1ccco1`: the Potency result was “inactive”.

Consider `Cc1csc(NC(=O)CSc2nnc(-c3ccccn3)n2-c2ccc(C)c(C)c2)n1`, for which the Potency was inactive: > 76.9 µM.

Consider `CN=c1oc2ccc(Cl)cc2cc1C(N)=O`, for which the Potency is inactive: > 76.9 µM.

Take `NC(=O)c1c(NC(=O)CN2CCOCC2)sc2c1CCC2`: the Potency is inactive: > 76.9 µM.

With `CCC(C)Nc1nc2c(c(=O)[nH]c(=O)n2C)n1CCC(C)C` (stereo not drawn), the Potency was inactive: > 76.9 µM.

For `CC(NS(C)(=O)=O)C(c1cccs1)N1CCN(c2ccccc2)CC1` (stereo not drawn), the Potency was inactive: > 76.9 µM.

Take `CCOC(=O)c1c(C)c(C(=O)Nc2ccccc2)c(C)n1CC`: the Potency was inactive: > 76.9 µM.

Take `ON1C(c2ccc(Cl)cc2Cl)N(O)[C@H]2CCCC[C@H]21` (stereo partly drawn): the Potency is inactive: > 76.9 µM.

As for `CC(C)(C)OC(=O)N1CCCC1C(=O)N1CCc2ccccc21` (stereo not drawn), the Potency was inactive: > 76.9 µM.

`Cc1ccccc1S(=O)(=O)Cc1ccc(C(=O)NCCCOC(C)C)o1`: the Potency is inactive: > 76.9 µM.

As for `Cc1ocnc1C(=O)Nc1ccc(Cl)cc1`, the Potency was inactive: > 76.9 µM.

`CC(=O)n1nc(-c2ccco2)nc1N`: the Potency was inactive: > 76.9 µM.

On to `Cc1cc(C)n2nc(CC(=O)NC3CCCCCC3)nc2n1`, for which the Potency was inactive: > 76.9 µM.

Turning to `COc1ccc(CN(CC(=O)NCc2ccco2)C(=O)CCC(=O)Nc2ccccn2)cc1`, the Potency was inactive: > 76.9 µM.

As to `COc1ccc(-c2cc3n(n2)CCc2nc4ccccc4n2-3)cc1`, the Potency was inactive: > 76.9 µM.

On to `Cn1c2c(c(=O)n(C)c1=O)C(CC(=O)Nc1ccccc1)C(=O)N2` (stereo not drawn), for which the Potency was inactive: > 76.9 µM.

Take `CC1CN(S(=O)(=O)c2cccc(C(=O)OCC(=O)Nc3ccc4c(c3)OCO4)c2)CC(C)O1` (stereo not drawn): the Potency was inactive: > 76.9 µM.

`O=C1CCCCCN1CP(=O)(O)CN1CCOCC1`: the Potency was inactive: > 76.9 µM.

As to `Cc1cccc(NC(=O)c2cc3ccccc3o2)c1`, the Potency was inactive: > 76.9 µM.

Take `CCOc1ccc2nc(-c3ccc(OC)c(OC)c3)cc(C(=O)O)c2c1`: the Potency was inactive: > 76.9 µM.

As for `CN(C)S(=O)(=O)c1cccc(C(=O)Nc2ccc(Cl)cn2)c1`, the Potency was inactive: > 76.9 µM.

On to `CSCCC1NC2(C(=O)Nc3c(C)cc(Cl)cc32)[C@@H]2C(=O)N(C3CCCC3)C(=O)[C@H]12` (stereo partly drawn), for which the Potency result is “inactive”.

Regarding `CSc1nsc(SC)c1C(=O)OCC(F)(F)F`, the Potency result was “inactive”.

With `Cn1c(COc2ccccc2)nnc1SCCN1CCOCC1`, the Potency is inactive: > 76.9 µM.

Turning to `O=C(COC(=O)C1CCC1)Nc1ccc(OC(F)F)cc1`, the Potency was inactive: > 15.4 µM.

With `COc1ccc(/C(O)=C2/C(=O)C(=O)N(CCCC(=O)O)C2c2ccc(OC)cc2)cc1` (stereo not drawn), the Potency is inactive: > 76.9 µM.

On to `Cc1cc(NC(=O)Cc2cn3ccsc3n2)n(-c2ccccc2)n1`, for which the Potency was inactive: > 76.9 µM.

For the compound `CCOC(=O)C1CCN(S(=O)(=O)c2cnc[nH]2)CC1`, the Potency is inactive: > 76.9 µM.

With `COc1ccc(CCNC(=O)CC2Nc3ccccc3NC2=O)cc1` (stereo not drawn), the Potency is inactive: > 76.9 µM.

Consider `Cc1ccccc1OCC(=O)NCCN(C)C`, for which the Potency is inactive: > 76.9 µM.

Consider `COc1ccc(NC(=O)CC(NCCc2ccccc2)C(=O)O)c(OC)c1` (stereo not drawn), for which the Potency was inactive: > 76.9 µM.

`CCOc1ccc(S(=O)(=O)n2nnc3ccccc32)cc1C(C)C`: the Potency was inactive: > 76.9 µM.

On to `CCc1cc2c(NC(C(=O)O)C(C)C)ncnc2s1` (stereo not drawn), for which the Potency is inactive: > 76.9 µM.

In the case of `CCOc1ccc(-n2c(SCc3ccc(C(=O)OC)o3)nc3c(c2=O)SCC3)cc1`, the Potency entry was “inactive”.

Consider `O=C(Cn1c(=O)oc2ccccc21)N1CCN(c2ccccc2)CC1`, for which the Potency is inactive: > 76.9 µM.

For the compound `O=C(Nc1cccc(C(=O)N2CCCC2)c1)c1ccccc1`, the Potency is inactive: > 76.9 µM.

On to `Cc1ccc(CNC(=O)CCCn2c(=O)[nH]c3ccccc3c2=O)cc1`, for which the Potency is inactive: > 76.9 µM.

With `COc1ccc(NC(=O)Nc2c(C)n(-c3ccccc3)c(=O)n2C)cc1OC`, the Potency was inactive: > 76.9 µM.

Consider `O=C(O)CCCC(=O)Nc1ccccc1-n1ccnc1`, for which the Potency is inactive: > 76.9 µM.

For the compound `COc1ccc(C2C=C(c3ccccc3)Nc3ncnn32)cc1` (stereo not drawn), the Potency is inactive: > 76.9 µM.

Turning to `O=C(NCc1cccnc1)C1c2ccccc2C(=O)N1C1CCCCCC1` (stereo not drawn), the Potency was inactive: > 76.9 µM.

Take `Cc1conc1NC(c1cccs1)c1ccc2cccnc2c1O` (stereo not drawn): the Potency was inactive: > 76.9 µM.

Take `Cc1ccc2nc(-c3ccccn3)cc(C(=O)N3CCN(c4ncccn4)CC3)c2c1`: the Potency was inactive: > 76.9 µM.

As for `CCOc1cccc(-c2nnc3sc(COc4ccc(OC)cc4)nn23)c1`, the Potency was inactive: > 76.9 µM.

For `C=CCN1C(=O)C2(C(C(=O)c3ccc(C)o3)=C(O)C(=O)N2CCCN2CCOCC2)c2ccccc21` (stereo not drawn), the Potency was inactive: > 76.9 µM.

For `O=C(NC1CCCCC1)C(c1cccs1)N(CC1CCCO1)C(=O)c1csnn1` (stereo not drawn), the Potency is inactive: > 76.9 µM.

For the compound `COc1ccc(OC)c(NC(=O)Nc2cccc(Cn3cccn3)c2)c1`, the Potency is inactive: > 76.9 µM.

As to `CN1C(=O)C(CC(=O)Nc2ccc3c(c2)Cc2ccccc2-3)N(C)C1=O` (stereo not drawn), the Potency was inactive: > 76.9 µM.

In the case of `Cc1ccc(CSc2nnc(-c3ccc(S(=O)(=O)N4CCCC4)cc3)o2)cc1`, the Potency was inactive: > 76.9 µM.

For the compound `COc1cc(C(=O)N2CCC(c3nc(-c4cccnc4)no3)CC2)cc(OC)c1OC`, the Potency was inactive: > 76.9 µM.

Consider `COCCNC(=O)C1CCCN(c2nn3c(=O)cc(C)nc3s2)C1` (stereo not drawn), for which the Potency is inactive: > 76.9 µM.

Regarding `O=C(O)COc1ccc(Oc2ccccc2)cc1`, the Potency is inactive: > 76.9 µM.

Take `CC(=O)c1cc2c(cc1NS(=O)(=O)c1ccc3c(c1)OCCO3)OCO2`: the Potency was inactive: > 76.9 µM.

Regarding `COc1ccc(CNC(=O)COC(=O)c2c[nH]c(=O)[nH]c2=O)cc1OC`, the Potency was inactive: > 76.9 µM.

As for `Cn1c(SCC(=O)NCC2CCCO2)nc2c([nH]c3ccccc32)c1=O` (stereo not drawn), the Potency was inactive: > 76.9 µM.
